Laboratory results: ChEMBL document CHEMBL4888484, “Replenishing the malaria drug discovery pipeline: Screening and hit evaluation of the MMV Hit Generation Library 1 (HGL1) against asexual blood stage Plasmodium falciparum ,using a nano luciferase reporter read-out” (2022)
The campaign covered roughly 150,000 compounds. About 540 (0.36%) showed an effect of 50% or more. The list shows a part of the results.

tested on: Plasmodium falciparum; test: Primary screen in NF54 nanoGlo assay, in single point, at 2uM, 72h; a lower Z score goes with more inhibition; assay type: functional, Erythrocyte; settings: timepoint 72 hour

Compound | % Inhibition [%] | Z score
O=C(Nc1nnc(-c2ccccc2)o1)c1ccc(Cl)cc1 | -16 | 1.65
Cc1n[nH]c(C)c1Cc1nncn1-c1ccc(Cl)cc1 | -4 | 0.8
CCCCc1nc(C)c(C(=O)NC(C)(C)C(=O)O)s1 | 8 | -0.89
O=c1[nH]cnc2c1nc(N1CCCCC1)n2[C@@H]1O[C@H](CO)[C@@H](O)[C@H]1O | -5 | 0.63
CCCCn1ccc(=O)c2c(C(F)(F)F)nccc21 | -15 | 1.95
NC(=O)c1cc(OC2CCN(C(=O)c3coc(CC4CC4)n3)CC2)ccn1 | 2 | -0.4
O=C(CC1(CC(=O)N2CCC2)CCCCC1)N1CCC1 | -7 | 1.01
O=C(c1ccc2sccc2c1)N1CCC[C@H](O)C1 | -16 | 1.66
Cc1[nH]ncc1CCCNc1ccc(C#N)cn1 | -14 | 1.54
FC(F)(F)[C@H](NCc1nc(C2CC2)no1)c1cccc2ccccc12 | 4 | -0.55
CN(C)CCNC(=O)Cc1cccs1 | -20 | 2.69
O=C(CCC1CCN(Cc2cccnc2)CC1)N1CCc2ccccc2C1 | -11 | 2.03
CC(=O)Nc1ccc(C(=O)N(Cc2ccccc2F)C2(C(=O)NCc3ccccc3)CCN(C(C)=O)CC2)cc1 | 7 | -0.99
C[C@H](NC(=O)c1nnc2n1CCCCC2)c1cccnc1 | -5 | 0.99
O=C(NCCN1CCN(c2nc(Cc3ccc(Cl)cc3)ns2)CC1)c1ccc(F)cc1 | -15 | 2.6
COc1cc(NC(=O)N(Cc2ccncc2)C2CC2)cc2cccnc12 | 2 | -0.19
C[C@]1(F)CCCN(C(=O)Cc2ccco2)C1 | 5 | -0.54
CCCCn1c(N)c(N(CCOC)C(=O)c2cc(-c3ccc(OC)c(OC)c3)nc3ccccc23)c(=O)[nH]c1=O | 5 | -0.55
OC[C@H]1CCCN(CCNc2ccc3cc(Cl)ccc3n2)C1 | 12 | -1.36
CC(C)(CN1CCN(C2CC2)CC1)CN1C(=O)c2ccccc2C1=O | 5 | -0.66
CC1CC(c2cccc(F)c2)N(CCN2CCOC2=O)C1 (stereo not drawn) | -11 | 1.66
CO[C@@H](CNS(C)(=O)=O)c1ccsc1 | -12 | 1.51
C=CCN(CC=C)C(=O)c1c(COc2ccc(C)cc2)n(CCN2CCOCC2)c(C)cc1=O | -5 | 0.92
N#Cc1nc(NC(=O)[C@@H]2Cc3ccccc3O2)[nH]c1C#N | 8 | -1.11
CCc1nc(N)nc(N2CCC3(CC[C@H](CNC(C)=O)O3)CC2)c1C | -8 | 0.85
Cc1n[nH]c(C(F)(F)F)c1-c1cccc(C(=O)N[C@H]2CC[C@H](O)CC2)c1 | -7 | 0.87
CCn1ccnc1[C@@H]1CCCCN1C(=O)Cc1ccc(C#N)cc1 | 11 | -1.22

Compound | % Inhibition [%] | Z score
COCCCNC(=O)Cc1cccn1-c1ccc(C)cc1 | -6 | 0.78
CCc1noc(CC)c1CC(=O)N1CCC[C@@H]1c1csc(C)n1 | -8 | 0.72
COCCN1CCC[C@H](NC(=O)c2cccnc2)C1 | 0 | -0.01
CCCc1cc(C(=O)N(Cc2cccnc2)Cc2ccc3c(c2)OCO3)no1 | -7 | 1.25
CC(C)c1nnsc1C(=O)N[C@@H]1[C@@H]2CCO[C@@H]2[C@H]1N1CCCC1 | -9 | 1.45
CC(C)CC(=O)[C@H]1CCCN(C(=O)c2coc(CN3CCN(c4ncccn4)CC3)n2)C1 | -5 | 0.85
NC(=O)CN1CCC=C(CCNS(=O)(=O)c2ccccc2)C1 | -6 | 1.05
CN(Cc1cc(C2CC2)on1)C(=O)CCc1ccc(F)c(F)c1 | -11 | 1.22
Cc1ccc(F)c(N)c1Br | 3 | -0.22
CO[C@@H](CNC(=O)N1CCNC1=O)c1ccsc1 | -13 | 2.01
C[C@H](NCCCc1cnn(C)c1)c1cc(Cl)c(N)c(Cl)c1 | -3 | 0.28
COc1ccccc1/C=C/CN1CCC[C@H](CCC(=O)N2CCCC2)C1 | -5 | 0.97
COc1ccc(-c2ccnc3nc(C4CCCCC4)nn23)c(F)c1 | -17 | 2.38
Fc1ccc(CN2CCn3nc(CNc4ncccn4)cc3C2)c(F)c1F | 2 | -0.3
CN(C)S(=O)(=O)c1ccc(-c2nnc(NC(=O)[C@@H]3COc4ccccc4O3)o2)cc1 | -15 | 1.88
CCOc1ccccc1C(=O)N1C[C@@H]2C[C@H](N(C)C)CN2C(=O)[C@@H]1C | -3 | 0.45
CC(=O)Oc1c(C)cc(CN[C@@H](C)c2nnn[nH]2)cc1C | -14 | 1.97
Cc1cc(C)c2c(n1)nn1c(-n3nc(C)cc3C)cc(C)nc21 | -12 | 1.88
CCOc1cc2c(cc1-c1nccn1Cc1csc(N)n1)CCC2 | 11 | -2.08
Cc1occ(C(F)(F)F)c1C(=O)N[C@H](c1ncccn1)C1CC1 | -9 | 1.38
O=S(=O)(c1cccc(C(F)(F)F)c1)n1cc(-c2cnn(S(=O)(=O)c3cccc(C(F)(F)F)c3)c2)cn1 | -4 | 0.59
CC(C)(C)c1ccc(-c2cc3[nH]c(Cc4ccccc4)cc(=O)n3n2)cc1 | 4 | -0.56
c1ccc(-c2ccc(CNc3cc([C@H]4CCCNC4)ncn3)s2)nc1 | -2 | 0.32
Cc1c(F)cccc1NC(=O)Nc1cccc(-c2nnc3n2CCCC3)c1 | -30 | 2.8
Cc1cccc(Cl)c1S(=O)(=O)N1C[C@@H]2CC[C@H]1CN(C)C2 | -9 | 0.99
CCCN(CCC)CCNS(=O)(=O)c1cc(-c2cc(C)no2)ccc1C | -5 | 0.59
Cc1cc(-c2nc([C@H]3CCOC3)no2)c2c(C)nn(C)c2n1 | -11 | 1.67
